The whole screen tested about 3,200 compounds, of which about 300 (9.4%) showed activity. The list shows a part of the results, in another mix than the full data.
System: A673/TR/shEF
Experiment: cell viability (LOESS-normalised, relative to median of negative controls) (log2 ratio); higher = more viable cells (less compound effect), active = hit call of the paper (over 3 MAD below the median)
Details: treatment time: 72 h
How it was run: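 Viability of A673/TR/shEF Ewing sarcoma cells was determined by CellTiter-Glo luminescence. The cells, at 1,500 per well in 384-well plates, were grown with or without doxycycline from 24 h before compound addition to switch on EWS-FLI1 shRNA knockdown, then exposed for three days to library compounds at two or more concentrations or to DMSO controls. Signals were LOESS-corrected plate by plate, normalised to the negative-control median and log2-transformed.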

[1] = 0.103 µM, library screen: screen3, EWS-FLI1 expression: high (no doxycycline)
[2] = 0.103 µM, library screen: screen3, EWS-FLI1 expression: low (doxycycline-induced shRNA knockdown)
[3] = 0.308 µM, library screen: screen3, EWS-FLI1 expression: high (no doxycycline)
[4] = 0.308 µM, library screen: screen3, EWS-FLI1 expression: low (doxycycline-induced shRNA knockdown)
[5] = 0.926 µM, library screen: screen3, EWS-FLI1 expression: high (no doxycycline)
[6] = 0.926 µM, library screen: screen3, EWS-FLI1 expression: low (doxycycline-induced shRNA knockdown)
[7] = 2.8 µM, library screen: screen3, EWS-FLI1 expression: high (no doxycycline)
[8] = 2.8 µM, library screen: screen3, EWS-FLI1 expression: low (doxycycline-induced shRNA knockdown)
[9] = 8.3 µM, library screen: screen3, EWS-FLI1 expression: high (no doxycycline)
[10] = 8.3 µM, library screen: screen3, EWS-FLI1 expression: low (doxycycline-induced shRNA knockdown)
[11] = 25 µM, library screen: screen3, EWS-FLI1 expression: high (no doxycycline)
[12] = 25 µM, library screen: screen3, EWS-FLI1 expression: low (doxycycline-induced shRNA knockdown)
[13] = 0.25 µM, library screen: screen1, EWS-FLI1 expression: high (no doxycycline)
[14] = 0.25 µM, library screen: screen1, EWS-FLI1 expression: low (doxycycline-induced shRNA knockdown)
[15] = 2.5 µM, library screen: screen1, EWS-FLI1 expression: high (no doxycycline)
[16] = 2.5 µM, library screen: screen1, EWS-FLI1 expression: low (doxycycline-induced shRNA knockdown)
[17] = 0.25 µM, library screen: screen2, EWS-FLI1 expression: high (no doxycycline)
[18] = 0.25 µM, library screen: screen2, EWS-FLI1 expression: low (doxycycline-induced shRNA knockdown)
[19] = 2.5 µM, library screen: screen2, EWS-FLI1 expression: high (no doxycycline)
[20] = 2.5 µM, library screen: screen2, EWS-FLI1 expression: low (doxycycline-induced shRNA knockdown)
[21] = 0.025 µM, library screen: screen1, EWS-FLI1 expression: high (no doxycycline)
[22] = 0.025 µM, library screen: screen1, EWS-FLI1 expression: low (doxycycline-induced shRNA knockdown)
[23] = 25 µM, library screen: screen1, EWS-FLI1 expression: high (no doxycycline)
[24] = 25 µM, library screen: screen1, EWS-FLI1 expression: low (doxycycline-induced shRNA knockdown)

Measured: cell viability (log2)

COC(=O)Nc1ccc(-c2nc(N3CCOCC3)c3cnn(C4CCN(C(=O)OC)CC4)c3n2)cc1
active: [7] -0.281 | [8] -0.237 | [9] -0.419 | [10] -0.244 | [11] -0.744 | [12] -0.369
inactive: [1] -0.0923 | [2] 0.0164 | [3] -0.0767 | [4] -0.0949 | [5] -0.134 | [6] -0.0918

O=C(O)CN(CC(=O)O)Cc1cc2c(cc1O)Oc1cc(O)c(CN(CC(=O)O)CC(=O)O)cc1C21OC(=O)c2ccccc21
inactive: [13] 0.133 | [14] 0.0463 | [15] 0.15 | [16] 0.0168

CC(=O)OC(CC(=O)[O-])C[N+](C)(C)C (centres undefined)
inactive: [13] 0.00442 | [14] 0.0665 | [15] 0.0316 | [16] -0.00031

CCCCNc1cc(C(=O)O)cc(S(N)(=O)=O)c1Oc1ccccc1
inactive: [1] 0.0523 | [2] -0.0116 | [13] 0.146 | [14] 0.112 | [17] 0.271 | [18] 0.123 | [3] 0.0349 | [4] 0.0222 | [5] 0.08 | [6] 0.102 | [15] 0.14 | [16] 0.15 | [19] 0.173 | [20] 0.0632 | [7] 0.116 | [8] 0.107 | [9] 0.138 | [10] -0.000538 | [11] 0.135 | [12] 0.0448

C[C@H](Cn1cnc2c(N)ncnc21)OCP(=O)(O)O
inactive: [1] 0.0857 | [2] 0.09 | [17] 0.128 | [18] 0.113 | [3] 0.00908 | [4] 0.0155 | [5] 0.0338 | [6] 0.0939 | [19] 0.189 | [20] 0.0365 | [7] 0.0533 | [8] 0.0269 | [9] -0.0007 | [10] 0.0852 | [11] 0.0436 | [12] 0.126

CC(=O)Oc1ccccc1C(=O)Oc1ccccc1C(=O)O
inactive: [13] 0.0903 | [14] 0.0838 | [15] 0.129 | [16] 0.0743

COc1c(C(C)C)oc2cc3oc(=O)ccc3cc12
inactive: [13] 0.0745 | [14] 0.0131 | [15] 0.0973 | [16] 0.0387

CC(C)n1c(/C=C/C(O)CC(O)CC(=O)O)c(-c2ccc(F)cc2)c2ccccc21 (centres undefined)
active: [9] -0.668 | [10] -0.538 | [11] -2.7 | [12] -1.87

CCCCCC(O)c1cccc(OCc2ccc3ccccc3n2)c1 (centres undefined)
inactive: [17] 0.0916 | [18] 0.06 | [19] 0.0895 | [20] 0.053

COc1cc2ncnc(Nc3cccc(Cl)c3)c2cc1OC
0.297: [24]
0.289: [13]
active: [15] -0.137 | [23] -0.119
inactive: [21] 0.237 | [22] 0.01 | [14] 0.0337 | [17] 0.134 | [18] 0.0168 | [16] 0.122 | [19] 0.175 | [20] 0.00846

O=c1oc2cc(O)ccc2s1
inactive: [1] -0.0407 | [2] 0.0636 | [13] 0.062 | [14] 0.039 | [3] 0.0118 | [4] 0.0239 | [5] -0.0187 | [6] 0.0384 | [15] 0.12 | [16] 0.0991 | [7] 0.0497 | [8] 0.0966 | [9] -0.0359 | [10] 0.0991 | [11] -0.142 | [12] 0.0552

CC(=O)Oc1cc(-c2coc3cc(OC(C)=O)c(OC(C)=O)c(OC(C)=O)c3c2=O)cc(OC(C)=O)c1OC(C)=O
inactive: [13] 0.0397 | [14] -0.0292 | [15] 0.0912 | [16] -0.0545

O=C(O)c1ccccc1O
inactive: [13] 0.145 | [14] 0.132 | [15] 0.122 | [16] 0.244

CCOC(=O)c1cnc2c(cnn2CC)c1NN=C(C)C
inactive: [17] 0.197 | [18] 0.0927 | [19] 0.0502 | [20] 0.0616

NC(=O)c1ccc(I)c([N+](=O)[O-])c1
inactive: [1] -0.0936 | [2] 0.0142 | [3] -0.0721 | [4] -0.0195 | [5] 0.0208 | [6] 0.0718 | [7] 0.0293 | [8] 0.0487 | [9] 0.0217 | [10] 0.061 | [11] -0.0148 | [12] 0.0274

O=C(O)c1cc2cc(Cc3cccnc3)ccc2o1
inactive: [13] 0.0601 | [14] 0.0474 | [17] 0.277 | [18] 0.0253 | [15] 0.137 | [16] 0.0202 | [19] 0.00879 | [20] 0.149

C=C1c2cccc(O)c2C(O)=C2C(=O)[C@]3(O)C(O)=C(C(N)=O)C(=O)[C@@H](N(C)C)[C@@H]3[C@@H](O)[C@H]12
active: [13] -0.16 | [15] -0.0967

C[C@@H]1[C@H]2[C@H](O[C@@H]3O[C@H](CO)[C@@H](O)[C@H](O)[C@H]3O)OC=C(C(=O)O)[C@H]2C[C@@H]1O
inactive: [13] 0.0698 | [14] 0.0626 | [15] 0.106 | [16] -0.0365

O=C(O)c1cc(N(Cc2ccccc2O)Cc2cc(O)ccc2O)ccc1O
inactive: [21] 0.17 | [22] 0.0496 | [13] 0.173 | [14] 0.132 | [15] 0.0556 | [16] 0.0297 | [23] 0.0931 | [24] 0.144

C[N+]1(C)[C@@H]2CC(OC(=O)C(O)(c3cccs3)c3cccs3)C[C@H]1[C@@H]1O[C@@H]12 (some centres undefined)
inactive: [1] -0.0419 | [2] -0.0363 | [3] -0.000855 | [4] 0.0413 | [5] 0.0247 | [6] 0.0262 | [7] 0.0531 | [8] 0.0434 | [9] 0.0573 | [10] 0.11 | [11] 0.0805 | [12] 0.115

COc1ccc(C2=N[C@@H](c3ccc(Cl)cc3)[C@@H](c3ccc(Cl)cc3)N2C(=O)N2CCNC(=O)C2)c(OC(C)C)c1
inactive: [1] 0.0246 | [2] -0.0154 | [3] 0.0154 | [4] 0.057 | [5] 0.0206 | [6] 0.0793 | [7] 0.0375 | [8] 0.0497 | [9] -0.059 | [10] 0.0821 | [11] 0.0113 | [12] 0.036

Oc1cccc(O)c1
inactive: [13] 0.0925 | [14] 0.0875 | [15] 0.142 | [16] 0.202

Cc1cc(O)cc(C)c1Cl
inactive: [13] 0.056 | [14] 0.0879 | [15] 0.127 | [16] 0.149

Cc1cn(-c2cc(NC(=O)c3ccc(C)c(Nc4nccc(-c5cccnc5)n4)c3)cc(C(F)(F)F)c2)cn1
inactive: [1] 0.0821 | [2] 0.114 | [3] 0.0305 | [4] 0.0807 | [5] 0.00582 | [6] 0.101 | [7] -0.0305 | [8] 0.116 | [9] 0.0184 | [10] 0.0705 | [11] -0.057 | [12] 0.0892

O=C(O)c1cc(=O)c2c(Cl)cc(Cl)cc2[nH]1
inactive: [13] 0.0846 | [14] 0.135 | [17] -0.00888 | [18] 0.0554 | [15] 0.118 | [16] 0.0923 | [19] 0.158 | [20] 0.127

O=Nc1ccc2oc(=O)ccc2c1
inactive: [17] 0.113 | [18] 0.142 | [19] 0.0947 | [20] 0.064

Brc1cccc(CN2CCN(Cc3cccnc3)CC2)c1
inactive: [13] 0.0662 | [14] 0.0708 | [15] 0.0924 | [16] 0.02

O=[N+]([O-])c1ccc(CSc2ncnc3c2ncn3[C@@H]2O[C@H](CO)[C@@H](O)[C@H]2O)cc1
inactive: [17] 0.1 | [18] 0.125 | [19] 0.102 | [20] 0.0798

O=C(O)c1cn(-c2ccccc2)nc1-c1ccc(F)cc1
inactive: [13] 0.0839 | [14] -0.00121 | [15] 0.0458 | [16] -0.135

CC(C)(C)c1ccc(S(=O)(=O)/C=C/C#N)cc1
active: [19] -0.121

CC(N)CCCC(C)(C)O (centres undefined)
inactive: [13] 0.0899 | [14] 0.138 | [15] 0.00546 | [16] 0.0221

CC(C)OC(=O)C(C)(C)Oc1ccc(C(=O)c2ccc(Cl)cc2)cc1
inactive: [1] 0.0904 | [2] 0.0244 | [13] 0.109 | [14] 0.0611 | [17] 0.188 | [18] 0.0261 | [3] 0.116 | [4] 0.0872 | [5] 0.0421 | [6] 0.0755 | [15] 0.186 | [16] 0.142 | [19] 0.0575 | [20] 0.0327 | [7] 0.032 | [8] 0.0509 | [9] 0.0776 | [10] 0.0557 | [11] 0.0748 | [12] 0.0945

NC(=O)CC[C@H](N)C(=O)O
inactive: [1] 0.0442 | [2] 0.0656 | [13] 0.128 | [14] 0.0229 | [17] 0.13 | [18] 0.0668 | [3] 0.114 | [4] 0.0554 | [5] 0.0561 | [6] 0.113 | [15] 0.12 | [16] 0.0891 | [19] 0.115 | [20] 0.0189 | [7] 0.182 | [8] 0.148 | [9] 0.111 | [10] 0.0635 | [11] 0.145 | [12] 0.14

— the supplement of paper PMC6089552
